The source gives no read counts; variants with many changes may rest on few reads.
B1: OR4K15 (parent)
chain: GUUAACGGUCAUAGGCCAUGGAAACUAGGAGCACCAUUUCGCUGCCAGUGAAGAAAUGAACAAAGAAAAUCUGGGCCAGGCAGGCAUCAAAAGAAAUAGUCUUGCGCUCAACCAGAAAGUCUGUAAUCAUUUUAAGGGUA

Variants of: B1
Assay: self-cleavage, relative activity (ratio to wild type); higher = more cleavage; in vitro, sequencing; the parent is a self-cleaving ribozyme

Variant | self-cleavage
A51G U70C U103C | 0.1
A51U G99U A114G | 0.06
A51G A60G C77U | 0.08
A51U A54G U120C | 1.04
A51U A86U U124A | 1.52
A51G A82U A95G | 0.42
A51G A59G A68G | 1.51
A51G A82G U87C | 0.54
A51U A118U G136U | 1.3
A51G A59G U87C | 0.64
A51G U57A A62U | 1.42
A51G A67G A118G | 2.6
A52G A56G U72A A117U | 0.33
A51G A68G U70A A96G C121A U124C | 0.84
A51G A67G U97C A116G | 0.29
A51U A78G A110U | 0.38
A51U A60G G138A | 1.29
A51G U103C A110G | 0.09
A51U U122A U130G | 1.12
A51G A78G A126G | 0.25
A51G A68G U131C | 1.33
A51G A60U A78U A111G | 0.02
A51G A96G A111G A117G U139C | 0
A51G A89U A129G | 1.59

Variant | self-cleavage
A52G A54G C88A | 1.35
A51G A67U U70C A111G U120C | 0.1
A51G A62G U70C A89G C109A U122C | 0.03
A51G A94G A95G U130C | 1.93
A51U A95G A96G | 1.76
A52C A67G A95G | 1.87
A52G A54G A68G G73U A125G | 0.04
A51G A62G U87C | 0.25
A52G A56G A60G A62U A66G A69G U97C | 0.53
A51G G58A A118G | 0.83
A51G A110G U124C | 0.08
A51G A114G U122A | 0.12
A51G A86U U102C | 2.23
A51G A62G A68G A118G | 0.57
A51U A64G A94G A117U | 0.94
A51U U72C A111G | 0.04
A51U U57A A62G A92G | 0.13
A51U A86G A94G A118G | 0.53
A51G A86G U139A | 1.83
A52G A56C U108C | 0.01
A51G A69G U108C U132C | 0.01
A51G G65A U72C A86G | 0.31
A51U U100C U122C U132A | 2.65
A51G A69C A89U U131C | 0.5

Variant | self-cleavage
A51G A95G U120C | 1.59
A51G A59G A62G A69U | 1.16
A51G A111G A134G | 0
A51G U72A A135G | 0.18
A51G U57C U122C | 1.07
A51U A78G A89G | 0.15
A51U A56G A110G A135G | 0.18
A51G A59G U108C | 0.04
A51G U72C U108C A118U | 0
A51G A68G A78G U97C A111G U131C | 0.01
A51G A64G U102A U103C A111G U130A | 0.01
A51G G106A U122C U131C | 0
A51U A78U A95G | 0.84
A51U A62G A78G A82G U97G U130C | 0.22
A51U A54G U72C | 0.28
A51G A60C A98U A117G | 2
A51G U102A U132C | 0.72
A51G A94G A98G U102C | 1.07
A51U A52G A98U | 1.74
A52G A54G U102C A116U | 0.18
A52G A56G A82G U122G | 0.88
A51G A69G U103C | 0.72
A51G U70C G74A | 0.15
A51G U70C A118G | 0.23

Variant | self-cleavage
A51U A89G U103C | 0.42
A51G A66G A67G A91G | 1.49
A51G A82G A86U A96G A114G | 0.22
A51G U57G A95G A126G A135G | 1.27
A52G A54U U87C A92G | 0.88
A52G A54G A63G A82G A89G | 0.51
A51U A55G A69G U100C | 1.22
A51U A69G U72C A134G | 0.24
A51G A69U A114G | 1.52
A51G U103G A134G | 0
A51U A59G A62G G74A A114C U130C | 0
A52G A54G A86G A94U A96G A111U | 0.15
A51G A68G A89G U131C | 1.03
A51U A66G A68U | 1.35
A51G U57C A118G U130C | 0.79
A51G A66G U100A U103C | 0.1
A51G A62G A67G U72A A92G A111G | 0.04
A51G U57C A68G G80U | 0.37
A51U G65A A89G A94G U122C A126G | 0.82
A51G U100A C107U | 0.01
A51U A55C A60G A92U A96G A111U U122C | 0.02
A51U A56G A129G | 1.01
A51G G79A A90G U108C U122A U132C | 0
A51G G79A A89G U122A | 0.06

Variant | self-cleavage
A51G A63U A89G U131C | 1
A51U A91G U100C U102C | 1.36
A51U U122C U139A | 1.19
A51G A64U A110G U139A | 0.1
A52G A56G A118G U130C | 1.08
A51G A92G A96C | 0.11
A51G G79A U100A | 0.07
A51G A59U A95G C107U A114U | 0.03
A51U A90G U103G U108C | 0.01
A51G A94G C121U | 1.62
A52G A56G A89U A116G | 1.18
A51G A62G U108C | 0.02
A52G A54G A55G A116G | 0.1
A51G A62G A66G | 1.2
A51G U87C U124C | 0.88
A52G A55G U102C | 2.94
A51G A82U A94G | 0.23
A51G C61U A62G U87A A95U A118G | 1.31
A51U A117G U120C | 0.87
A51G A60G A68G A78U | 0.47
A51G A59G U70C | 0.53
A51U U102C A114G | 0.55
A51G A86U U97C A126G | 1.36
A51U A64G A92G | 1.36

Variant | self-cleavage
A51U A67G U70C U139C | 0.61
A51U A68U A90G | 1.17
A52G A54G C61U | 1.83
A51G C61G U130G | 0
A51U U130C A140U | 1.4
A51G A94G G99A G115A | 0.02
A52C A55G A82G U103C | 0.26
A51G A98G U127A U132C | 0.9
A52G A54U A68G U108G U120C | 0.02
A51U A66G A94G A126G | 1.11
A51U A82U G136A | 0.12
A51G A63G A90G | 1.87
A51U A59U A94U U103C | 1.31
A51U A92G A117G A135G | 0.31
A51G A59G A62G A89G | 0.72
A51G A69G A78G | 0.13
A51G A68G A82G A92G U122C | 0.12
A51G U122A A140U | 2.32
A51G A89G A94U U102G | 0.11
A52G A54G U57A A95G A117G U122G | 2.57
A51U A95G A118G A140U | 1.22
A51G A64G G75A A116U | 0
A51G A64G A96G | 1.79
A51G U57A A67G A126G U130C | 0.37

Variant | self-cleavage
A51U A60G A66G A69G | 1.03
A51G A69G U130C | 1.67
A51U A54G A114G | 0.8
A52G A55G U130C | 0.55
A52G A56G A89G A114G | 0.33
A51U U108C U127C | 0.01
A51G A94G A116G | 0.17
A51G A62G A90G | 0.64
A51U A89U U100C A114G A129G | 0.15
A51G U100C A118G | 1.43
A51G A63G U87C U102C A117G | 2.5
A51U A56G A68G A69G | 1.46
A52G A56G A69G | 1.28
A51G A110G U122G | 0.19
A51G A64G A82U U130C | 0.03
A51G G80A U120C U122C | 0.06
A51U U70A A94G | 1.05
A52G A55G U70C A82G | 0.36
A51G A59G A92G A116G U122C | 0.51
A51G A82G U120C | 0.84
A52G A55G A134G | 1.69
A51U A54G A69G U122C A140G | 1.15
A51G U108C U131C | 0

Source: the RNAGym collection of RNA variant scans (doi:10.7554/elife.90254)
